± gives the standard deviation of the averaged measurements. This is one part of the list.
tested on: PfAP2-EXP AP2 domain (GST-tagged); test: gcPBM binding intensity (ln(normalized median fluorescence intensity)); higher = stronger DNA binding
Outline: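 Plasmodium falciparum DNA-binding domains carrying a GST tag were expressed in E. coli and applied for 1 h, at about 25 μg on average, to an Agilent 4 × 180k array. The array held primer-extended double-stranded 36-bp intergenic genomic probes together with negative controls, and binding took place in 1× PBS with 1% milk, 0.2 mg/ml BSA, 0.5% salmon testes DNA and 0.03% Triton X-100. An Alexa488 anti-GST antibody detected bound protein, and the array was scanned at 488 nm. Binding intensity is taken as the highest Masliner-normalised natural-log median intensity across replicate spots of either probe orientation.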

Q: “TTAATTATATGGTAAACAAATAAATGTGAAAGGAAA [XGTACX_negctrl_site389]” was tested. Which “gcPBM binding intensity (ln)” value did it give?
A: Its value is 8.92 ± 0.41.

Q: How did the “gcPBM binding intensity (ln)” value turn out when “TATATACAACGTTAAGCACACACAAAAAAAATTTAA [CACACA_site9013]” was run?
A: The value was 8.7 ± 0.54.

Q: “TTAAAAATAAATTCATGTACATAATATATATATATA [XGTACX_site7908]” was tested. Which “gcPBM binding intensity (ln)” value did it give?
A: The value was 10.01 ± 0.057.

Q: Which “gcPBM binding intensity (ln)” value does the source give for “CATATGTATATGACTACACACAAGGGTGTACCTATA [CACACA_site6670]” here?
A: The value was 8.36 ± 0.44.

Q: How did the “gcPBM binding intensity (ln)” value turn out when “AAAACATAAATACATACACACATAATATAGATTAAT [CACACA_site6205]” was run?
A: Its value is 8.76 ± 0.35.

Q: For “TTGCATTTATTATACACACACAAAAAAATATTTATA [CACACA_site6252]”, which “gcPBM binding intensity (ln)” value is on record?
A: The value was 8.56 ± 0.38.

Q: For “TGTTCATTTTTAAAATGTACATATATGTTGTTCCAT [XGTACX_site8444]”, which “gcPBM binding intensity (ln)” value is on record?
A: The value was 8.96 ± 0.42.

Q: “CTATATGTTAAATTCTCACACATTATTACAATTTAA [CACACA_site5979]” was tested. Which “gcPBM binding intensity (ln)” value did it give?
A: The value was 8.6 ± 0.42.

Q: “ACGTATTTTTAAATATATGAATTATGTAACTTGTGA [CACACA_negctrl_site1446]” was tested. Which “gcPBM binding intensity (ln)” value did it give?
A: Its value is 8.16 ± 0.38.

Q: Which “gcPBM binding intensity (ln)” value does the source give for “GAATATGTGATATTTTGTACATAAAAATAATATATA [XGTACX_site6398]” here?
A: Its value is 8.51 ± 0.4.

Q: How did the “gcPBM binding intensity (ln)” value turn out when “TATACTATTTAAATGTGTACTAAAAGAATATATTAT [XGTACX_site5238]” was run?
A: Its value is 8.54 ± 0.45.

Q: “AGTAGTCTGGAGAAAAGTACATAGTATCTGATAACC [XGTACX_site2028]” was tested. Which “gcPBM binding intensity (ln)” value did it give?
A: The value was 8.81 ± 0.51.

Q: With “TATTATAATATATTTGTGCACATAATATCTCCGCTA [GTGCAC_site9799]” as the sequence, how does the “gcPBM binding intensity (ln)” value read?
A: Its value is 8.91 ± 0.26.

Q: “TGCTTATATATAAATTGTACTGAAAGAATAAAATAA [XGTACX_site4025]” was tested. Which “gcPBM binding intensity (ln)” value did it give?
A: Its value is 8.52 ± 0.51.

Q: “AAAAAGATAAAATATACATGCATATATAATATACAT [TGCATGCA_site488]” was tested. Which “gcPBM binding intensity (ln)” value did it give?
A: Its value is 8.49 ± 0.2.

Q: With “AAAAAAAAAAAATACACACACATATTTATTTATATA [CACACA_site7114]” as the sequence, how does the “gcPBM binding intensity (ln)” value read?
A: The value was 8.2 ± 0.35.

Q: “AAAAAAGGTAAAAAAAGTACAAAAAAAAAATTAAAA [XGTACX_site6993]” was tested. Which “gcPBM binding intensity (ln)” value did it give?
A: The value was 8.49 ± 0.55.

Q: Which “gcPBM binding intensity (ln)” value does the source give for “GTATAATATTTTAATGCACACACACTAATAAAAAAA [CACACA_site8939]” here?
A: The value was 8.78 ± 0.24.

Q: “TTGACAGGAACGTTGGTGCACGTACTGTTTTTCTTT [GTGCAC_site9389]” was tested. Which “gcPBM binding intensity (ln)” value did it give?
A: The value was 8.77 ± 0.16.

Q: With “TTTGGATAAAAAATATGTACACACATATAGATATCT [XGTACX_site5660]” as the sequence, how does the “gcPBM binding intensity (ln)” value read?
A: Its value is 8.56 ± 0.5.

Q: How did the “gcPBM binding intensity (ln)” value turn out when “AAGTATAAATAAAGGCGTACACATGTAAATTATATT [XGTACX_site126]” was run?
A: The value was 8.9 ± 0.13.

Q: “AAAATAATTCATGTTGGTAATAAGACTCGAGGTGAA [CACACA_negctrl_site1054]” was tested. Which “gcPBM binding intensity (ln)” value did it give?
A: Its value is 8.77 ± 0.54.

Q: With “TAATAGATGTTATGAAGTACTAAATATTAAATATAA [XGTACX_site5717]” as the sequence, how does the “gcPBM binding intensity (ln)” value read?
A: Its value is 8.55 ± 0.45.

Q: For “TTTATTTTAAATGGGTGTACTCATTCCTTATGGAAG [XGTACX_site1397]”, which “gcPBM binding intensity (ln)” value is on record?
A: The value was 8.46 ± 0.35.

Q: Which “gcPBM binding intensity (ln)” value does the source give for “GATTTATACAAATATGTACACACTAAATATATATTA [CACACA_site455]” here?
A: Its value is 8.64 ± 0.24.

Q: “TTTATTTTATTTTCATGTACAAAAGGGGAATAATAA [XGTACX_site2704]” was tested. Which “gcPBM binding intensity (ln)” value did it give?
A: The value was 8.71 ± 0.18.

Q: For “ATATGTATGTATTTATTATTGTGCATTGTATTTATA [CACACA_negctrl_site664]”, which “gcPBM binding intensity (ln)” value is on record?
A: Its value is 8.69 ± 0.2.

Q: With “TATTTATCTTTACGCACACACTTGCATGTACAAAAG [CACACA_site4753]” as the sequence, how does the “gcPBM binding intensity (ln)” value read?
A: Its value is 9.32 ± 0.19.

Q: With “AATACCCATATCTTCACACATACATAATAAATTATA [CACACA_site5367]” as the sequence, how does the “gcPBM binding intensity (ln)” value read?
A: Its value is 8.55 ± 0.28.

Q: Which “gcPBM binding intensity (ln)” value does the source give for TTTATTTATGTGTGGGTGCATATACGTATGATGTAT here?
A: Its value is 9.12 ± 0.3.

Q: With “TTTGAATATTCATATGCACACAAATTAATATACATA [CACACA_site8040]” as the sequence, how does the “gcPBM binding intensity (ln)” value read?
A: Its value is 8.31 ± 0.25.

Q: Which “gcPBM binding intensity (ln)” value does the source give for “ATTTATTAATTACCATGTATAAAAAATTATATAATA [CACACA_negctrl_site581]” here?
A: The value was 8.19 ± 0.51.

Q: With “GTCGTATAATTTTCAGTGCAATATTTGAATAAATGG [GTGCAC_site9404]” as the sequence, how does the “gcPBM binding intensity (ln)” value read?
A: The value was 8.91 ± 0.25.

Q: With “ATACAATACAAAAACACACACAAAAAAAGAAAAGGA [CACACA_site2156]” as the sequence, how does the “gcPBM binding intensity (ln)” value read?
A: The value was 8.83 ± 0.67.

Q: Which “gcPBM binding intensity (ln)” value does the source give for “AGCAACTCAATATATATAAGAATTGTAATATAATAT [GTGCAC_negctrl_site429]” here?
A: The value was 8.34 ± 0.5.

Q: “ATATATTTATATATTTGTACATATAATATCTTCTTT [XGTACX_site8504]” was tested. Which “gcPBM binding intensity (ln)” value did it give?
A: The value was 8.37 ± 0.38.

Q: With “TAATAAATCAATAAATGTACATATATGTATAATTTC [XGTACX_site980]” as the sequence, how does the “gcPBM binding intensity (ln)” value read?
A: The value was 8.47 ± 0.33.

Q: With “ATAATGTATTTATATATATATATATATTTTAATAAA [CACACA_negctrl_site460]” as the sequence, how does the “gcPBM binding intensity (ln)” value read?
A: Its value is 8.24 ± 0.52.

Q: How did the “gcPBM binding intensity (ln)” value turn out when “AATTATAAAAAAAAAAAAAAAAAAAAAAACTAAATG [CACACA_negctrl_site1379]” was run?
A: Its value is 8.11 ± 0.47.

Q: With “TTTAAAAATATATTCACACAGAAATAGTAAAAGTTA [CACACA_site4587]” as the sequence, how does the “gcPBM binding intensity (ln)” value read?
A: The value was 8.58 ± 0.34.

Q: Which “gcPBM binding intensity (ln)” value does the source give for “TATATATAGAAACACACACACACACCCAAGCGTAGC [CACACA_site63]” here?
A: The value was 8.73 ± 0.5.

Q: With “ATTATAACTAAATAAATGATATATAATATTTTATTT [XGTACX_negctrl_site234]” as the sequence, how does the “gcPBM binding intensity (ln)” value read?
A: The value was 7.84 ± 0.34.

Q: How did the “gcPBM binding intensity (ln)” value turn out when “AATGTGTACGCACGCACACACAAAAAAATATATATA [CACACA_site2913]” was run?
A: Its value is 8.67 ± 0.4.

Q: Which “gcPBM binding intensity (ln)” value does the source give for “ATCTATATCTATAATACACACATAAATGGATATATA [CACACA_site6284]” here?
A: The value was 8.31 ± 0.39.

From the supplement of paper PMC11417369
